Assay results as given in patent US20100311683A1, “CYTIDINE ANALOGS FOR TREATMENT OF MYELODYSPLASTIC SYNDROMES” (priority 2007, published 2010).
Read-outs that look alike come from different tables or passages of the source.

Tests used:
[1] = system: patients with higher risk MDS; experiment: AZA-001 analysis: IRC-determined IWG 2006 responses
[2] = system: patients with higher risk MDS
[3] = system: patients with higher risk MDS; remark: listed apart in the source
[4] = system: patients with AML or high-risk MDS after HSCT; details: human, in vivo
[5] = system: patients with higher risk MDS; experiment: AZA-001 analysis: 1-year survival by IWG 2000 response category
[6] = system: patients with higher risk MDS; experiment: Phase III AZA-001 trial: azacitidine vs conventional care regimens (overall survival, AML transformation, IWG 2000 response, transfusion independence, infections, safety); details: human, in vivo, 75 mg/m^2/day

## Nc1ncn([C@@H]2O[C@H](CO)[C@@H](O)[C@H]2O)c(=O)n1 [azacitidine, 4-amino-1-β-D-ribofuranosyl-1,3,5-triazin-2(1H)-one]
[1]; AZA n=179
  IRC-determined IWG response rate, CR: 16%
  IRC-determined IWG response rate, HI: 36%
  IRC-determined IWG response rate, PR: 1%
[1]; in vivo
  median duration of response, CR: 156 days
  median duration of response, HI: 241 days
  median duration of response, PR: 217 days
  median duration of response, SD: 257 days
[2]; human, in vivo
  rate of early discontinuation: 39%
[2]; patients pre-selected for LDAC
  CR+PR rate: 31.1%
  HI (major + minor): 53.3%
  deaths during study: 45%
  difference in median OS, AZA vs LDAC: 9.2 months
  hazard ratio OS, AZA vs LDAC: 0.38
  transfusion independence in baseline-dependent patients: 45%
[2]; patients pre-selected for LDAC: AZA n=45, LDAC n=49
  median OS: 24.4 months
[3]; AZA 75 mg/m2/d SC x7d q28d, N=175
  median duration of the most common AEs (≥20%): 13 days
[3]; Cycles 1-2, N=175
  Patients with at least 1 individual AE occurring in ≥20% of patients, percent of patients per cycle: 94%
  TEAE Anemia, percent of patients per cycle: 33%
  TEAE Blood and lymphatic system disorders, percent of patients per cycle: 75%
  TEAE Constipation, percent of patients per cycle: 35%
  TEAE Diarrhea, percent of patients per cycle: 12%
  TEAE Fatigue, percent of patients per cycle: 13%
  TEAE Gastrointestinal disorders, percent of patients per cycle: 62%
  TEAE General disorders and administration site conditions, percent of patients per cycle: 62%
  TEAE Injection site erythema, percent of patients per cycle: 35%
  TEAE Injection site reaction, percent of patients per cycle: 21%
  TEAE Nausea, percent of patients per cycle: 36%
  TEAE Neutropenia, percent of patients per cycle: 50%
  TEAE Pyrexia, percent of patients per cycle: 16%
  TEAE Thrombocytopenia, percent of patients per cycle: 54%
  TEAE Vomiting, percent of patients per cycle: 18%
[3]; Cycles 3-4, N=147
  Patients with at least 1 individual AE occurring in ≥20% of patients, percent of patients per cycle: 79%
  TEAE Anemia, percent of patients per cycle: 18%
  TEAE Blood and lymphatic system disorders, percent of patients per cycle: 54%
  TEAE Constipation, percent of patients per cycle: 20%
  TEAE Diarrhea, percent of patients per cycle: 8%
  TEAE Fatigue, percent of patients per cycle: 10%
  TEAE Gastrointestinal disorders, percent of patients per cycle: 42%
  TEAE General disorders and administration site conditions, percent of patients per cycle: 44%
  TEAE Injection site erythema, percent of patients per cycle: 21%
  TEAE Injection site reaction, percent of patients per cycle: 13%
  TEAE Nausea, percent of patients per cycle: 19%
  TEAE Neutropenia, percent of patients per cycle: 31%
  TEAE Pyrexia, percent of patients per cycle: 6%
  TEAE Thrombocytopenia, percent of patients per cycle: 30%
  TEAE Vomiting, percent of patients per cycle: 11%
[3]; Cycles 5-6, N=130
  Patients with at least 1 individual AE occurring in ≥20% of patients, percent of patients per cycle: 65%
  TEAE Anemia, percent of patients per cycle: 14%
  TEAE Blood and lymphatic system disorders, percent of patients per cycle: 42%
  TEAE Constipation, percent of patients per cycle: 13%
  TEAE Diarrhea, percent of patients per cycle: 4%
  TEAE Fatigue, percent of patients per cycle: 3%
  TEAE Gastrointestinal disorders, percent of patients per cycle: 25%
  TEAE General disorders and administration site conditions, percent of patients per cycle: 32%
  TEAE Injection site erythema, percent of patients per cycle: 18%
  TEAE Injection site reaction, percent of patients per cycle: 9%
  TEAE Nausea, percent of patients per cycle: 12%
  TEAE Neutropenia, percent of patients per cycle: 28%
  TEAE Pyrexia, percent of patients per cycle: 4%
  TEAE Thrombocytopenia, percent of patients per cycle: 25%
  TEAE Vomiting, percent of patients per cycle: 5%
[3]; Cycles 7-8, N=107
  Patients with at least 1 individual AE occurring in ≥20% of patients, percent of patients per cycle: 65%
  TEAE Anemia, percent of patients per cycle: 11%
  TEAE Blood and lymphatic system disorders, percent of patients per cycle: 36%
  TEAE Constipation, percent of patients per cycle: 9%
  TEAE Diarrhea, percent of patients per cycle: 5%
  TEAE Fatigue, percent of patients per cycle: 6%
  TEAE Gastrointestinal disorders, percent of patients per cycle: 27%
  TEAE General disorders and administration site conditions, percent of patients per cycle: 32%
  TEAE Injection site erythema, percent of patients per cycle: 16%
  TEAE Injection site reaction, percent of patients per cycle: 9%
  TEAE Nausea, percent of patients per cycle: 14%
  TEAE Neutropenia, percent of patients per cycle: 19%
  TEAE Pyrexia, percent of patients per cycle: 6%
  TEAE Thrombocytopenia, percent of patients per cycle: 20%
  TEAE Vomiting, percent of patients per cycle: 8%
[3]; Cycles 9-10, N=89
  Patients with at least 1 individual AE occurring in ≥20% of patients, percent of patients per cycle: 65%
  TEAE Anemia, percent of patients per cycle: 14%
  TEAE Blood and lymphatic system disorders, percent of patients per cycle: 36%
  TEAE Constipation, percent of patients per cycle: 17%
  TEAE Diarrhea, percent of patients per cycle: 5%
  TEAE Fatigue, percent of patients per cycle: 3%
  TEAE Gastrointestinal disorders, percent of patients per cycle: 30%
  TEAE General disorders and administration site conditions, percent of patients per cycle: 28%
  TEAE Injection site erythema, percent of patients per cycle: 11%
  TEAE Injection site reaction, percent of patients per cycle: 9%
  TEAE Nausea, percent of patients per cycle: 11%
  TEAE Neutropenia, percent of patients per cycle: 20%
  TEAE Pyrexia, percent of patients per cycle: 7%
  TEAE Thrombocytopenia, percent of patients per cycle: 21%
  TEAE Vomiting, percent of patients per cycle: 6%
[3]; in vivo
  anemia events managed with transfusions: 87%
  cumulative or delayed toxicities: no cumulative or delayed toxicities
  gastrointestinal events managed with concomitant medications: 72%
  gastrointestinal events that were transient: 95%
  hematologic AEs that were transient: > 86%
  hematologic events managed with delays in the next AZA cycle: 99%
  injection site reactions requiring treatment with concomitant medications: < 15%
  median duration of constipation: approximately 1 week
  median duration of diarrhea, nausea, vomiting: 1 to 4 days
  median duration of fatigue and pyrexia: approximately 1 week
  median duration of hematologic AEs: ~2 weeks
  median duration of injection site reactions: 12 days
  patients discontinued due to a hematologic event: < 5%
  patients in whom fatigue and pyrexia were managed by delay in the next AZA cycle: approximately 5%
  patients with neutropenia, anemia, or thrombocytopenia that required hospitalization: ≤ 10%
  thrombocytopenia events managed with transfusions: 29%
[3]; most common AEs
  AEs that resulted in discontinuation of AZA: Less than 1%
Patients with WHO AML
  OS rate at 2 yrs: 50%
  RR hospitalization, AZA vs CCR: 0.79
  RR infections requiring IV antibiotics, AZA vs CCR: 0.51
  hazard ratio (HR) OS, AZA vs CCR: 0.47
  infections requiring IV antibiotics: 0.58 per pt-year
  rate of hospitalization: 3.4 per pt-year
Patients with WHO AML; AZA n=55
  KM median OS: 24.5 months
Patients with WHO AML; cytogenetic intermediate patients
  HR OS, AZA vs CCR: 0.47
Patients with WHO AML; unfavorable cytogenetics
  HR OS, AZA vs CCR: 0.66
[4]
  infections: influenza/parainfluenza: 2 n
[5]; CR patients excluded from the analysis
  hazard ratio OS, AZA vs CCR: 0.65
[5]; IWG 2000 best response CR
  one year survival rate: 96.7%
[5]; IWG 2000 best response HI
  one year survival rate: 96.0%
[5]; IWG 2000 best response PR
  one year survival rate: 85.5%
[5]; IWG 2000 best response SD
  one year survival rate: 73.3%
[5]; all AZA-treated patients
  one year survival rate: 68.2%
[5]; disease progression (DP)
  patients alive at one year: 28.6%
[6]
  deaths considered related to treatment during the first 3 cycles: 4 patients
